# Test results taken from PubChem BioAssay AID686978 (National Center for Advancing Translational Sciences (NCATS), 2013).
# In all, about 420,000 compounds went through this assay and about 64,000 (15%) were called active. The inconclusive results got no clear call from the source; some entries with a clear call stand among them for comparison. The call rests on the fitted dose curve; in most records, active means well fitted inhibition curve with a large enough effect; inconclusive means small, poorly fitted or top-dose-only effect; inactive means flat fitted curve, though single readings scatter. Potencies of inconclusive entries are left out as doubtful fits.
# Experiment: qHTS for Inhibitors of human tyrosyl-DNA phosphodiesterase 1 (TDP1): qHTS in cells in absence of CPT; further: nearly all actives have a fitted effect of over 55% in size
# Conditions: DT40 Tdp1-/- hTDP1 cells, no CPT, ATP luminescence, 48 h; activity change, negative = growth inhibition: at 46.2 µM (top of the series) unless noted
# How it was run: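 Chicken DT40 Tdp1-/- cells stably complemented with human TDP1 were seeded at 400 cells/well with DMSO in place of 20 nM camptothecin. After compound pinning, cells grew at least 48 hr at 37 °C; viability read by CellTiter-Glo luminescence.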
# On the % scale 0 is the no-effect control and ±100 the full control effect; potency means the concentration at half of the fitted maximal effect; tags describe the fitted curve by direction and shape.
Structure (SMILES),Potency,"activity change, negative = growth inhibition"
CN(Cc1c(F)cccc1Cl)C(=O)c1cccc(S(=O)(=O)N2CCN(Cc3ccccc3)CC2)c1,"inconclusive [inhibitor, single point]",–
O=C(CCCN1C(=O)/C(=C/c2ccccc2Cl)SC1=S)NNC(=O)c1ccncc1,"inconclusive [inhibitor, single point]",–
Cc1ccc(NC(=O)COC(=O)Cn2cnc3ccccc32)c([N+](=O)[O-])c1,–,inconclusive: -5.43% [inhibitor]
COc1ccc([N+](=O)[O-])cc1NC(=O)c1ccco1,inactive,–
COc1ccccc1NCC(=O)NN=C1CCS(=O)(=O)c2ccc(F)cc21,"inconclusive [inhibitor, single point]",–
CCn1c2c(c(=O)n3ncc(C(=O)Nc4cc(Cl)ccc4C)c13)CN(Cc1ccc(OC)cc1)CC2,active: 20.6 µM,–
COc1ccc(C2C=C(c3cccc(OC)c3)Nc3c(C(=O)Nc4ccccc4)cnn32)cc1 (stereo not given),"inconclusive [inhibitor, single point]",–
COc1ccc(C(=O)N/N=C(\C)CC(=O)Nc2ccc(N(C)C)cc2)c(OC)c1,inactive,–
CC12COC3(P(=O)(c4ccccc4)c4ccccc4)CC1CCC23CP(=O)(c1ccccc1)c1ccccc1 (stereo not given),"inconclusive [inhibitor, single point]",–
COc1cc(OC)c(NC(=O)C2=C(C)C(=O)OC23CCCCCC3)cc1Cl,"inconclusive [inhibitor, single point]",–
Cc1ccc(C)c(S(=O)(=O)N2CCN(CC(=O)Nc3ccc4c(c3)CCC4)CC2)c1,"inconclusive [inhibitor, single point]",–
Cc1nn2c(N3CCN(C4CCCC4)CC3)cc(C(C)(C)C)nc2c1-c1ccccc1,inactive,–
OCCN1CCN(c2nc(-c3ccccc3O)nc3ccccc23)CC1,active: 16.4 µM,–
Cc1onc(C(=O)N2C(C)CCCC2C)c1[N+](=O)[O-] (stereo not given),"inconclusive [inhibitor, single point]",–
CC(C)(C)NC(=O)CC1C[C@H](C(=O)N2CCCCC2)[C@@]2(C)c3[nH]c4ccccc4c3CCN2C1=O (stereo not given in full),"inconclusive [inhibitor, single point]",–
CC1(Oc2cccc(F)c2)CCN(Cc2ccc(-c3ccccc3)o2)C1 (stereo not given),"inconclusive [inhibitor, single point]",–
COCCCNC(=O)c1c[nH]c2ccc(S(=O)(=O)N3CCc4ccccc43)cc2c1=O,"inconclusive [inhibitor, partial curve]",–
CCC1CN(C(=O)N2CCC(C(=O)N3CCN(c4cccc(C)c4C)CC3)CC2)c2ccccc2O1 (stereo not given),active: 5.8 µM,–
Cc1nc2sc(C(c3ccco3)N3CCC(Cc4ccccc4)CC3)c(O)n2n1 (stereo not given),"inconclusive [inhibitor, single point]",–
COCCn1c(N2CCCC2)nc2c1c(=O)[nH]c(=O)n2C,inactive,–
Cc1ccc(OCC(=O)N(Cc2ccccc2)C(C)C)c([N+](=O)[O-])n1,"inconclusive [inhibitor, single point]",–
Cc1ccc(C(=O)Nc2cc(S(=O)(=O)N3CCOCC3)ccc2N2CCCC2)cc1,–,inconclusive: -30.3% [inhibitor]
Cc1cc(C(=O)Nc2ccncc2)c2ccccc2n1,inactive,–
Cc1cccc(/C=N/NC(=O)NC23CC4CC(CC(C4)C2)C3)n1,"inconclusive [inhibitor, partial curve]",–

Structure (SMILES),Potency,"activity change, negative = growth inhibition"
Cc1ccc(C(=O)N2CCN(S(=O)(=O)c3ccccc3)CC2)cc1,"inconclusive [inhibitor, single point]",–
COc1ccccc1-c1nnc(SCC(=O)Nc2ccccc2F)o1,active: 20.6 µM,–
Cc1ccc(S(=O)(=O)N(C)CC(=O)NCC(=O)Nc2ccc(F)c(F)c2F)cc1,"inconclusive [inhibitor, partial curve]",–
COc1ccc(NC(=O)C2CCN(Cc3cnn(-c4ccccc4)c3-n3cccc3)CC2)cc1OC,"inconclusive [inhibitor, single point]",–
CCCCN(C)C(=O)c1ccc(CS(=O)(=O)c2ccccc2C)o1,"inconclusive [inhibitor, single point]",–
Cc1nc2cc(C(F)(F)F)ccc2n1CCNc1nc(-c2ccc([N+](=O)[O-])c(Cl)c2)cs1,active: 20.6 µM,–
CN(C)c1cccc(C(=O)NNC(=O)CSc2ccccc2)c1,inactive,–
COc1ccc(-c2nc(-c3ccc(O)cc3O)cs2)cc1OC,"inconclusive [inhibitor, single point]",–
CS/C(=N\S(=O)(=O)c1cccs1)Nc1ccc(Cl)cc1,"inconclusive [inhibitor, partial curve]",–
O=C(Nc1ccccc1N1CCCC1)c1ccc(Cl)cc1Cl,"inconclusive [inhibitor, single point]",–
CC(=O)Nc1nc2ccccc2n1Cc1ccccc1C,active: 13 µM,–
Cc1nc2cc(NC(=O)c3ccc(N4C(=O)CCC4=O)cc3)ccc2s1,inactive,–
COc1ccccc1N1CCN(/N=C/c2cccc(Cl)c2)CC1,"inconclusive [inhibitor, single point]",–
COc1cc(OC)c2c(C)c(Cl)c(=O)oc2c1,inactive,–
O=C([C@@H]1C[C@@H](Sc2nc3ccccc3[nH]2)CN1CC1CCCCC1)N1CCOCC1,inactive,–
Cc1nc(SCC(=O)N2CCN(C(=O)c3ccco3)CC2)c2c(C)c(C)sc2n1,"inconclusive [inhibitor, partial curve]",–
Nc1c(C(=O)Nc2nc3ccccc3s2)sc2nc(-c3cccs3)ccc12,active: 20.6 µM,–
CCCCCn1c(N)c(-c2nc3ccccc3s2)c2c([N+](=O)[O-])nn(CC)c(=O)c21,"inconclusive [inhibitor, single point]",–
CC1(C(=O)O)CCCN(C(=O)c2ccc(OC(F)F)cc2)C1 (stereo not given),inactive,–
CCc1ccc2[nH]c(=O)c(CN(Cc3cccs3)Cc3nnnn3Cc3ccccc3)cc2c1,active: 12.6 µM,–
O=C(Cn1c(=O)oc2cc(S(=O)(=O)N3CCCCC3)ccc21)N1CCc2ccccc21,inactive,–
CN(C)c1ncnc2c1nnn2C1OC(CO)C(O)C1O (stereo not given),active: 0.326 µM,–
Cc1cc(/C=C2/SC(=S)N(c3cccc(C(F)(F)F)c3)C2=O)c(C)n1-c1cccnc1,active: 0.731 µM,–
O=c1cc(NS(=O)(=O)c2ccccc2)nc(SCc2ccccc2Cl)[nH]1,"inconclusive [inhibitor, single point]",–

Structure (SMILES),Potency,"activity change, negative = growth inhibition"
COc1ccc(C(O)c2nc(-c3cccc(O)c3)cs2)cc1 (stereo not given),"inconclusive [inhibitor, partial curve]",–
CCCc1nc2ccccc2c(C(=O)OCC(=O)Nc2c(C)n(C)n(-c3ccccc3)c2=O)c1CC,active: 16.4 µM,–
CN(Cc1ccco1)C(=O)c1ccc2c(c1)N(Cc1ccccc1F)C(=O)c1ccccc1S2,"inconclusive [inhibitor, single point]",–
Cc1nc2ccccc2nc1N1CCCC1,inactive,–
COC(=O)C(NNc1ccccc1)(NC(=O)c1ccccc1F)C(F)(F)F (stereo not given),"inconclusive [inhibitor, single point]",–
CC(=O)N1c2ccc(S(=O)(=O)NCC3CCC(C(=O)Nc4ccc(C)cc4)CC3)cc2CC1C (stereo not given),"inconclusive [inhibitor, partial curve]",–
COc1ccccc1OCC(=O)Nc1ccc2c(c1)n(C)c(=O)n2C,"inconclusive [inhibitor, single point]",–
CCOc1ccccc1NC(=O)c1nc[nH]c1C(=O)Nc1ccccc1OCC,"inconclusive [inhibitor, partial curve]",–
COc1cccc(-c2nc(NCc3ccccc3OC)c3ccccc3n2)c1,"inconclusive [inhibitor, single point]",–
O=C(O)C1CCC[C@@H]2[C@@H]3CC(CN12)[C@@H]1CCCCN1C3 (stereo not given in full),–,inactive: -20.8% [at 9.04 µM]
COc1ccc(/C=C/C(=O)Oc2ccc(C)cc2)cc1,inactive,–
COCCNC(=O)c1ccc2c(c1)NC(=O)CS2,inactive,–
COc1ccc(-c2nnn(CC(=O)N(C3CCCCC3)C(C)C(=O)NC3CCCC3)n2)cc1OC (stereo not given),"inconclusive [inhibitor, single point]",–
CCOC(=O)[C@]12CCCC=C1N(Cc1ccco1)C(=O)[C@H](CC(=O)N1CCN(C(=O)c3ccco3)CC1)C2,inactive,–
Cc1ccc(NC(=O)ON=C2CCCC2)cc1,inactive,–
Cn1c(CSCc2ccc(Cl)cc2)nnc1SCC(=O)Nc1nccs1,"inconclusive [inhibitor, partial curve]",–
O=[N+]([O-])c1ccc(/C=N/NC(=S)Nc2ccccc2C(F)(F)F)o1,active: 13 µM,–
CCOc1ccc(NC(=O)CN(C)C(=O)CCCn2c(=O)oc3ccccc32)cc1OCC,"inconclusive [inhibitor, single point]",–
COC(=O)c1cc2sc(C)cc2n1CC(=O)Nc1ccc(C)c(C)c1,"inconclusive [inhibitor, single point]",–
Cc1csc(NC(=O)NCC2CCCC(CNC(=O)Nc3nc(C)cs3)C2)n1 (stereo not given),"inconclusive [inhibitor, single point]",–
CCCCCC(=O)N1CC2(CC(c3cccc(NC(=O)c4ccccc4)c3)=NO2)C[C@@H]1C(N)=O (stereo not given in full),"inconclusive [inhibitor, single point]",–
CCOC(=O)C1(Cc2ccc(OC)cc2)CCN(C(=O)c2cc3ccccc3[nH]2)CC1,"inconclusive [inhibitor, single point]",–
